The values that follow come from article PMC4336329 (PLoS ONE, 2015).

About 14,000 (4.5%) of roughly 310,000 compounds showed an effect of 50% or more. Effects have a minus sign here. This is one part of the list.
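Note: peak tail current of the secondary pulse compared with the same well before compound.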

human ether-à-go-go-related gene (hERG) potassium channel, sequence (Q12809 whole entry, looked up): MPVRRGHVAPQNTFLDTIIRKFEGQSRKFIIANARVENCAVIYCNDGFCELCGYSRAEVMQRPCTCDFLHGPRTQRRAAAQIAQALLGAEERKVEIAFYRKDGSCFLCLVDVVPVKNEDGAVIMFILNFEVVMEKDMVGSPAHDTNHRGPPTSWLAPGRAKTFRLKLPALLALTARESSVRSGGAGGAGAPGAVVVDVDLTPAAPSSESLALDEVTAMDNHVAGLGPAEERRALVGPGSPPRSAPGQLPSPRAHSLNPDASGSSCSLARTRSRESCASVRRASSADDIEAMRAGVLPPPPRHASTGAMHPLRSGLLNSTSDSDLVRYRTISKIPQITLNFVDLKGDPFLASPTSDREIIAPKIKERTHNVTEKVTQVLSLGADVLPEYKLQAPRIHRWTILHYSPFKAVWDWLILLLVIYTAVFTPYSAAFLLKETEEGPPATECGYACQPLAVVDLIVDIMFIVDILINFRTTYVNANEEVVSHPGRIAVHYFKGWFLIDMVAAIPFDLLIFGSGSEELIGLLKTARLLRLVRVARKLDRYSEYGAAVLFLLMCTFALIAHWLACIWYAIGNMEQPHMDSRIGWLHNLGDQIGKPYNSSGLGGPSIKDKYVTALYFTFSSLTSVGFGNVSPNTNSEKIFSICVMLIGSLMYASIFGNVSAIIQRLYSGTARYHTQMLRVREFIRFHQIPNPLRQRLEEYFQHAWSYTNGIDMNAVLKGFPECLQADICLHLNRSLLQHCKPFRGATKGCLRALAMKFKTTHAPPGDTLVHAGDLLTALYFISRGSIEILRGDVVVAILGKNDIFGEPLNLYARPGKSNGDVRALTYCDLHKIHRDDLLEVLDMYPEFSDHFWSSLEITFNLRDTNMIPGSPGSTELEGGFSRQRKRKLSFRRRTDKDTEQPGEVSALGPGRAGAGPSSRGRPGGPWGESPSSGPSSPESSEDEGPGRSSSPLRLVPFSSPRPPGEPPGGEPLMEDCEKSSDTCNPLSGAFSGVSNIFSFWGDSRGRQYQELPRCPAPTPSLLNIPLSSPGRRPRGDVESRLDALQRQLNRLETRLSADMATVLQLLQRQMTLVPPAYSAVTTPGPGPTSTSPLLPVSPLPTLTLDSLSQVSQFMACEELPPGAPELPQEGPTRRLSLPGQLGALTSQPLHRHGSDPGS

The experiment concerns the target human ether-à-go-go-related gene (hERG) potassium channel (human, UniProt Q12809). Nature of the experiment: primary screen, population patch clamp on CHO cells stably expressing hERG.
Regarding `Cc1cc(C)cc(NC(=O)Cn2nnc(C(=O)NCCc3ccccc3)c2N)c1`, the “hERG current change (%, negative = inhibition) at 10uM” value is recorded as 8.03%.
The same measure for `CCc1ccc(N2CC(C(=O)Nc3ccc(S(=O)(=O)Nc4ncccn4)cc3)CC2=O)cc1` (stereo not drawn): 1.26%; for `COCCCNC(=O)CCSc1ccc(Cl)cc1`: -8.9%; for `Cc1ccc(S(=O)(=O)NCc2ccccc2)cc1C(=O)NC1CCCCC1`: 15.9%.
On to `COC(=O)c1ccc(NS(=O)(=O)c2cc(C)ccc2OC)cc1`, for which the “hERG current change (%, negative = inhibition) at 10uM” value is on record as 8.37%.
On to `O=C(CNc1ccc(Br)cc1)c1ccc(O)cc1`, for which the “hERG current change (%, negative = inhibition) at 10uM” value is -2.24%.
`O=C(CSc1nc2c([nH]c3ccccc32)c(=O)n1-c1ccc(F)cc1)NCc1ccco1`: the “hERG current change (%, negative = inhibition) at 10uM” value is recorded as -8.03%.
Under `Clc1ccccc1Cc1noc(CN2CCN3CCCC3C2)n1` (stereo not drawn) stands -9.7%; under `CC(C)(C)NC(=O)NC(=O)CN1CCN(c2ccc(O)cc2)CC1`, 9.23%; under `C=CCN1C(=O)CSc2ccc(C(=O)N3CCC(C)CC3)cc21`, -9.08%.
As to `CC(=O)Nc1ccc(NC(=O)C(C)OC(=O)CCCc2c[nH]c3ccccc23)cc1` (stereo not drawn), the “hERG current change (%, negative = inhibition) at 10uM” value worked out at 7.68%.
The same measure for `CCOC(=O)c1cc(NC(=O)c2ccoc2C)cc(C(=O)OCC)c1`: -10.5%.
In the case of `C=CCn1c(=O)/c(=C/c2ccc(F)cc2)s/c1=C(\C#N)c1nnc2n1CCCCC2`, the “hERG current change (%, negative = inhibition) at 10uM” value is listed as -59.9%.
In the case of `O=C(CCNS(=O)(=O)c1cccc2nsnc12)NCc1ccccc1`, the “hERG current change (%, negative = inhibition) at 10uM” value was 1.36%.
Take `CC(C)NC(=O)NC(=O)COC(=O)c1ccc(S(=O)(=O)NCc2ccco2)cc1`: the “hERG current change (%, negative = inhibition) at 10uM” value was found to be 17.1%.
Regarding `CCCS(=O)(=O)N1CCC(C(=O)NCCCOC)CC1`, the “hERG current change (%, negative = inhibition) at 10uM” value is recorded as -0.339%.
As for `COc1ccccc1CCC(=O)N(C)C1CCCN(Cc2ccccc2F)C1` (stereo not drawn), the “hERG current change (%, negative = inhibition) at 10uM” value is reported as -28%.
Regarding `CC1(C)c2[nH]c3ccccc3c2C[C@@H]2C(=O)N(Cc3ccccc3)C(=O)N21`, the “hERG current change (%, negative = inhibition) at 10uM” value is on record as 6.84%.
Under `CCOC(=O)Cc1csc(NC(=O)CS(=O)(=O)Cc2ccccc2)n1` stands -5.06%.
Regarding `c1n[nH]c(NCc2ccc3c(c2)OCO3)n1`, the “hERG current change (%, negative = inhibition) at 10uM” value stood at 1.07%.
On to `CCOc1ccccc1NC(=O)C1C2C=CC(C2)C1C(=O)O` (stereo not drawn), for which the “hERG current change (%, negative = inhibition) at 10uM” value worked out at 6.03%.
Regarding `Cc1ccsc1C(=O)C1CCCN(Cc2sc(N(C)C)nc2Cl)C1` (stereo not drawn), the “hERG current change (%, negative = inhibition) at 10uM” value came out at 6.85%.
Regarding `O=C(COC(=O)c1c(Cl)cccc1Cl)NC1CCCCC1`, the “hERG current change (%, negative = inhibition) at 10uM” value was -8.93%.
Regarding `Cc1c(C(=O)CN2CCSCC2)c2ccccc2n1C`, the “hERG current change (%, negative = inhibition) at 10uM” value is -21.7%.
Regarding `NNC(=O)c1cc(-c2ccc(N)cc2)nc2ccc(Br)cc12`, the “hERG current change (%, negative = inhibition) at 10uM” value came to 15.6%.
Consider `COCCCNC(=O)CC(NS(=O)(=O)c1ccc(Cl)cc1)c1ccc(OC)cc1` (stereo not drawn), for which the “hERG current change (%, negative = inhibition) at 10uM” value was -0.0404%.
For `Cc1ccccc1C(=O)NC(=S)Nc1sc2c(c1C#N)CCC(C)C2` (stereo not drawn), the “hERG current change (%, negative = inhibition) at 10uM” value is given as 14.2%.
For the molecule `Cc1ccccc1OCC(O)Cn1c(NCc2ccco2)nc2c1c(=O)n(C)c(=O)n2C` (stereo not drawn), the “hERG current change (%, negative = inhibition) at 10uM” value is given as -52.1%.
With `COc1cccc(-c2c(-c3cc(OC)cc(OC)c3)n(C)c3ccc(Br)cc23)c1`, the “hERG current change (%, negative = inhibition) at 10uM” value is reported as 7%.
Under `CCSC1=NN1c1cc(C)nc(N)n1` stands 10.7%; under `COc1ccc(Oc2cc(C(F)(F)F)nc(N(C)C)n2)cc1`, 5.69%.
The same measure for `C=CCNC(=O)c1cc(-c2ccccc2O)on1`: 8.16%; for `COc1cccc(C(=O)Nc2nnc(-c3ccccc3)s2)c1OC`: 4.52%; for `COc1ccccc1CNc1nc2nc(C)c(Cl)c(=O)n2[nH]1`: -2.39%.
`COc1cccc2c1OC1(C)CC2NC(=O)N1c1cccc(C(=O)N2CCN(c3ccccn3)CC2)c1` (stereo not drawn): the “hERG current change (%, negative = inhibition) at 10uM” value is 15.3%.
The same measure for `O=C(O)CCN1C(=O)C2C3c4ccccc4C(c4ccccc43)[C@@H]2C1=O` (stereo partly drawn): -3.66%.
Under `CCc1cccc(NC(=S)N(CCN(C)C)C2CCN(C(C)C)CC2)c1` stands -6.44%; under `COc1cccc(CC(=O)n2nc(N)c3cc4ccc(OC)cc4nc32)c1`, 11.2%.
Take `O=C(CCc1nnc(C2CCCCC2)o1)N1CCC(Oc2cccnc2)CC1`: the “hERG current change (%, negative = inhibition) at 10uM” value turned out to be 5.96%.
Under `O=C(COC(=O)Cc1c[nH]c2ccccc12)Nc1ccccc1` stands -3.68%.
Take `Cc1ccc(CNC(=O)[C@@H](NC(=O)Cc2ccccc2)C(C)C)cc1`: the “hERG current change (%, negative = inhibition) at 10uM” value was 6.89%.
Take `COc1ccc(CNC(=O)COC(=O)C2CCC(C(C)(C)C)CC2)cc1` (stereo not drawn): the “hERG current change (%, negative = inhibition) at 10uM” value was determined as 6.01%.
Under `Cc1cc(=O)nc2c3ccccc3n(C(C)C(=O)NCCN3CCOCC3)n12` (stereo not drawn) stands 15.2%.
Consider `CCN(CC)CCCOc1ccc(C)cc1Br`, for which the “hERG current change (%, negative = inhibition) at 10uM” value is given as -69%.
With `CCn1c(-c2cc(Br)ccc2O)n[nH]c1=S`, the “hERG current change (%, negative = inhibition) at 10uM” value worked out at 14%.
Take `Cc1nc2scc(C)n2c(=O)c1S(=O)(=O)N1CCN(c2ccccc2)CC1`: the “hERG current change (%, negative = inhibition) at 10uM” value is reported as -26.3%.
`O=C(CCNC(=O)c1ccccc1Cl)NC1=NCCS1`: the “hERG current change (%, negative = inhibition) at 10uM” value worked out at 6.15%.
Under `O=S(=O)(c1ccccc1)N1CCN(Cc2cccc(Br)c2)CC1` stands -1.71%; under `CCCCCCN=C(C)c1c(O)n(CCCC)c(=O)[nH]c1=O`, -8.21%.
Consider `CC(NC(=O)c1cc(F)c(F)c(F)c1F)c1ccc(-n2ccnc2)cc1` (stereo not drawn), for which the “hERG current change (%, negative = inhibition) at 10uM” value is -65.2%.
With `Cc1cc(C)cc(Oc2coc3cc(OC(=O)c4cccnc4)ccc3c2=O)c1`, the “hERG current change (%, negative = inhibition) at 10uM” value turned out to be 10.7%.
Under `CC(=O)Nc1ccc(S(=O)(=O)NC(C)C(=O)NCC(c2ccco2)N2CCCCC2)cc1` (stereo not drawn) stands -0.15%; under `COc1ccc(CNC(=O)c2ccc(SC)cc2OC)cc1`, -4.44%.
Regarding `CCOC(=O)C1=C(CN2CCN(C(=O)OCC)CC2)NC(=O)NC1c1ccc2c(c1)OCO2` (stereo not drawn), the “hERG current change (%, negative = inhibition) at 10uM” value is -18.4%.
For the molecule `COC(=O)c1cc2n(n1)CCCNC2=O`, the “hERG current change (%, negative = inhibition) at 10uM” value came to 31.8%.
The same measure for `COCCCN(C(=O)CCOc1ccccc1C)c1c(N)n(Cc2ccccc2)c(=O)[nH]c1=O`: -3.05%.
Regarding `Cn1c2c(c(=O)n(C)c1=O)CN(CCN1CCNCC1)CN2`, the “hERG current change (%, negative = inhibition) at 10uM” value was -10.1%.
The same measure for `CCCCOCC(O)CCc1n[nH]c(=S)n1-c1ccccc1` (stereo not drawn): 23.5%; for `CCCCn1c(O)c(C(CC)=NCc2ccco2)c(=O)[nH]c1=O`: -35.4%; for `O=C1c2ccccc2C(=O)N1c1cccc(-c2nc3ccccc3o2)c1`: 6.77%.
`[N-]=[N+]=NCCN1CCN(CCc2ccccc2)CCC1=O`: the “hERG current change (%, negative = inhibition) at 10uM” value worked out at 9.16%.
As for `COc1cc(NC(=O)CC(C)S(=O)(=O)c2cc3c(cc2C)NC(=O)CO3)cc(OC)c1OC` (stereo not drawn), the “hERG current change (%, negative = inhibition) at 10uM” value was determined as 4.92%.
For the molecule `O=C(CCNS(=O)(=O)c1ccc(Br)cc1)NC1CCN(Cc2ccccc2)CC1`, the “hERG current change (%, negative = inhibition) at 10uM” value is -61.9%.
`COc1cc(OC)c(C2SCCS2)c(OC)c1`: the “hERG current change (%, negative = inhibition) at 10uM” value was found to be 2.14%.
Turning to `CCOC(=O)c1c(NC(=O)CCCN2CCOCC2)sc2c1CC(C)(C)OC2`, the “hERG current change (%, negative = inhibition) at 10uM” value is -9.14%.
Regarding `COc1cc2c(C(=O)N3CCN(c4ccccc4)CC3)c(C)oc2cc1Br`, the “hERG current change (%, negative = inhibition) at 10uM” value is -0.66%.
For the molecule `CCOC(=O)c1c(C)[nH]c(C)c1S(=O)(=O)N1CCOCC1`, the “hERG current change (%, negative = inhibition) at 10uM” value is on record as 13.8%.
Turning to `CN(CCOc1ccc(CC2SC(=O)NC2=O)cc1)c1ccccn1.O=C(O)/C=C\C(=O)O` (stereo not drawn), the “hERG current change (%, negative = inhibition) at 10uM” value turned out to be 5.05%.
The same measure for `O=C(C1CCCN(c2nnc(-n3cccc3)s2)C1)N1CCC2(CC1)OCCO2` (stereo not drawn): 1.29%.
Turning to `O=C(Nc1ccccc1Cl)Nc1ccnn1C1CCN(C(=O)CCN2CCCO2)CC1`, the “hERG current change (%, negative = inhibition) at 10uM” value is listed as 11.8%.
As for `O=C1C2C3C=CC(C3)C2C(=O)N1CNc1ccccc1` (stereo not drawn), the “hERG current change (%, negative = inhibition) at 10uM” value is listed as 11.6%.
Under `O=C(NCc1ccccc1)c1cc(-n2cnnc2)ccc1Cl` stands -5.75%; under `O=C(Cn1cnc2sc3c(c2c1=O)CCCC3)NCC(=O)Nc1c(F)cccc1F`, 5.5%.
Take `OC1c2cc(Br)ccc2N=C2CCCN21` (stereo not drawn): the “hERG current change (%, negative = inhibition) at 10uM” value stood at 7.01%.
Turning to `COc1ccc(-n2c(Cn3c(=O)sc4ccccc43)nnc2SCC(=O)N2CCOCC2)cc1`, the “hERG current change (%, negative = inhibition) at 10uM” value is recorded as -13.5%.
On to `CC(C)N1CC(O)=C(c2nc3ccccc3[nH]2)C1=N`, for which the “hERG current change (%, negative = inhibition) at 10uM” value was -11.1%.
Take `CC1CCCN(CCOCCOc2ccc(Cl)cc2Br)C1.O=C(O)C(=O)O` (stereo not drawn): the “hERG current change (%, negative = inhibition) at 10uM” value was -61.1%.
Regarding `Cc1cc(C)c2cc(C#N)c(SCC(=O)Nc3ccc4c(c3)OCO4)nc2c1`, the “hERG current change (%, negative = inhibition) at 10uM” value turned out to be 5.11%.
With `COc1cccc(C(=O)NCC(=O)OCC(=O)C(C)(C)C)c1`, the “hERG current change (%, negative = inhibition) at 10uM” value came out at 11.2%.
Regarding `COCCNC(=O)c1ccccc1NC(=O)COc1ccccc1`, the “hERG current change (%, negative = inhibition) at 10uM” value is recorded as -12.4%.
Under `COc1ccc(NC(=O)N/C=C/c2ccco2)cc1` stands 30.3%; under `CC(=O)O.CNc1nc(N/N=C/c2cc3c(cc2[N+](=O)[O-])OCO3)nc(Nc2ccccc2)n1`, 10.8%; under `Cc1nc(SCC(=O)NCC(F)(F)F)c2c(-c3cccs3)csc2n1`, 0.503%.
For the molecule `CC(C)OC(=O)CCCNc1ccc([N+](=O)[O-])cc1[N+](=O)[O-]`, the “hERG current change (%, negative = inhibition) at 10uM” value is -41.4%.
Regarding `O=C(CSc1nnnn1-c1ccccc1)Nc1ccccc1`, the “hERG current change (%, negative = inhibition) at 10uM” value is 11.8%.
For the molecule `OCCN1CCN(c2ncnc3sc(-c4ccccc4)cc23)CC1`, the “hERG current change (%, negative = inhibition) at 10uM” value is recorded as -24.2%.
As for `COc1ccccc1NC(=O)c1cn(CCC#N)nc1-c1cccc(Cl)c1`, the “hERG current change (%, negative = inhibition) at 10uM” value is on record as -4.86%.
Under `Cc1ccc2cc(CN(Cc3cccs3)Cc3nnnn3CC3CCCO3)c(=O)[nH]c2c1` (stereo not drawn) stands -18.6%.
Regarding `COc1ccccc1CNC(=O)N1CCN(c2ccccc2Cl)CC1`, the “hERG current change (%, negative = inhibition) at 10uM” value was 12.9%.
On to `COc1ccc(-c2csc(NC(=O)c3ccc(S(C)(=O)=O)cc3)n2)cc1`, for which the “hERG current change (%, negative = inhibition) at 10uM” value is on record as 2.97%.
